Measured values: the supplement of paper PMC8728848
Some of the results follow.

Columns and labels:
Assay in all cases: glycan array binding signal (z-score within array); higher = stronger binding
Details in all cases: glycan notation: IUPAC condensed, linker removed
[1] = biological target: Neu5Ac(a2-3)Gal(b1-4)GlcNAc(b1-6)GalNAc
Method in brief: (§1)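 Glycan array binding is given as a within-array Z-score, which can be read as non-binding when negative. The arrays, 3228 of them, came from the Consortium for Functional Glycomics database and were retained only where the protein sequence was available. Z-scores were averaged across arrays of the same protein sequence at different concentrations or buffers and across linkers.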

[2] = biological target: Neu5Ac(a2-3)Gal(b1-4)GlcNAc(b1-6)[Gal(b1-3)]GalNAc
Method in brief: as §1

[3] = biological target: Neu5Ac(a2-3)Gal(b1-4)GlcNAc(b1-6)[Neu5Ac(a2-3)Gal(b1-3)]GalNAc
Method in brief: as §1

[4] = biological target: Neu5Ac(a2-3)Gal(b1-4)GlcNAc6S
Method in brief: as §1

[5] = biological target: Neu5Ac(a2-3)Gal(b1-4)[Fuc(a1-3)]GlcNAc
Method in brief: as §1

[6] = biological target: Neu5Ac(a2-3)Gal(b1-4)[Fuc(a1-3)]GlcNAc(b1-2)Man
Method in brief: as §1

[7] = biological target: Neu5Ac(a2-3)Gal(b1-4)[Fuc(a1-3)]GlcNAc(b1-3)Gal
Method in brief: as §1

[8] = biological target: Neu5Ac(a2-3)Gal(b1-4)[Fuc(a1-3)]GlcNAc(b1-3)Gal(b1-4)GlcNAc
Method in brief: as §1

[9] = biological target: Neu5Ac(a2-3)Gal(b1-4)[Fuc(a1-3)]GlcNAc(b1-3)Gal(b1-4)[Fuc(a1-3)]GlcNAc(b1-3)Gal(b1-4)[Fuc(a1-3)]GlcNAc
Method in brief: as §1

[10] = biological target: Neu5Ac(a2-3)Gal(b1-4)[Fuc(a1-3)]GlcNAc(b1-3)GalNAc
Method in brief: as §1

[11] = biological target: Neu5Ac(a2-3)Gal(b1-4)[Fuc(a1-3)]GlcNAc(b1-6)[Gal(b1-3)]GalNAc
Method in brief: as §1

[12] = biological target: Neu5Ac(a2-3)Gal(b1-4)[Fuc(a1-3)]GlcNAc(b1-6)[Neu5Ac(a2-3)Gal(b1-3)]GalNAc
Method in brief: as §1

[13] = biological target: Neu5Ac(a2-3)Gal(b1-4)[Fuc(a1-3)]GlcNAc6S
Method in brief: as §1

[14] = biological target: Neu5Ac(a2-3)Gal6S(b1-4)GlcNAc
Method in brief: as §1

[15] = biological target: Neu5Ac(a2-3)Gal6S(b1-4)[Fuc(a1-3)]GlcNAc
Method in brief: as §1

Neu5Ac(a2-3)GalNAc = biological target: Neu5Ac(a2-3)GalNAc
Method in brief: as §1

[16] = biological target: Neu5Ac(a2-3)GalNAc(b1-4)GlcNAc
Method in brief: as §1

[17] = biological target: Neu5Ac(a2-3)[GalNAc(b1-4)]Gal(b1-4)Glc
Method in brief: as §1

[18] = biological target: Neu5Ac(a2-3)[GalNAc(b1-4)]Gal(b1-4)GlcNAc
Method in brief: as §1

[19] = biological target: Neu5Ac(a2-3)[GalNAc(b1-4)]Gal(b1-4)GlcNAc(b1-3)GalNAc
Method in brief: as §1

[20] = biological target: Neu5Ac(a2-3)[Neu5Ac(a2-6)]GalNAc
Method in brief: as §1

Neu5Ac(a2-6)Gal = biological target: Neu5Ac(a2-6)Gal
Method in brief: as §1

[21] = biological target: Neu5Ac(a2-6)Gal(b1-3)GlcNAc(b1-3)[Gal(b1-4)GlcNAc(b1-6)]Gal(b1-4)Glc
Method in brief: as §1

Neu5Ac(a2-6)Gal(b1-4)Glc = biological target: Neu5Ac(a2-6)Gal(b1-4)Glc
Method in brief: as §1

[22] = biological target: Neu5Ac(a2-6)Gal(b1-4)GlcNAc
Method in brief: as §1

[23] = biological target: Neu5Ac(a2-6)Gal(b1-4)GlcNAc(b1-2)Man
Method in brief: as §1

[24] = biological target: Neu5Ac(a2-6)Gal(b1-4)GlcNAc(b1-2)Man(a1-3)Man(b1-4)GlcNAc(b1-4)GlcNAc
Method in brief: as §1

[25] = biological target: Neu5Ac(a2-6)Gal(b1-4)GlcNAc(b1-2)Man(a1-3)[Gal(b1-4)GlcNAc(b1-2)Man(a1-6)]Man(b1-4)GlcNAc(b1-4)GlcNAc
Method in brief: as §1

[26] = biological target: Neu5Ac(a2-6)Gal(b1-4)GlcNAc(b1-2)Man(a1-3)[GlcNAc(b1-2)Man(a1-6)]Man(b1-4)GlcNAc(b1-4)GlcNAc
Method in brief: as §1

[27] = biological target: Neu5Ac(a2-6)Gal(b1-4)GlcNAc(b1-2)Man(a1-3)[GlcNAc(b1-4)][Neu5Ac(a2-6)Gal(b1-4)GlcNAc(b1-2)Man(a1-6)]Man(b1-4)GlcNAc(b1-4)GlcNAc
Method in brief: as §1

B1: Microvirin-2 (Microcystis aeruginosa) (protein)
chain: MPNFSHTCSSINYDPDSTILSAECQARDGEWLPTELRLSDHIGNIDGELQFGDQNFQETCQDCHLEFGDGEQSVWLVCTCQTMDGEWKSTQILLDSQIDNNDSQLEIGGSMPNFSHTCSSINYDPDSTILSAECQARDGEWLPTELRLSDHIGNIDGELQFGDQNFQETCQDCHLEFGDGEQSVWLVCTCQTMDGEWKSTQILLDSQIDNNDSQLEIG
glycan array binding signal (z-score) [1]: -0.131 | glycan array binding signal (z-score) [2]: -0.139 | glycan array binding signal (z-score) [3]: -0.129 | glycan array binding signal (z-score) [4]: -0.146 | glycan array binding signal (z-score) [5]: -0.14 | glycan array binding signal (z-score) [6]: -0.12 | glycan array binding signal (z-score) [7]: -0.142 | glycan array binding signal (z-score) [8]: -0.108 | glycan array binding signal (z-score) [9]: -0.114 | glycan array binding signal (z-score) [10]: -0.087 | glycan array binding signal (z-score) [11]: -0.121 | glycan array binding signal (z-score) [12]: -0.105 | glycan array binding signal (z-score) [13]: -0.128 | glycan array binding signal (z-score) [14]: -0.134 | glycan array binding signal (z-score) [15]: -0.149 | glycan array binding signal (z-score) (Neu5Ac(a2-3)GalNAc): -0.136 | glycan array binding signal (z-score) [16]: -0.143 | glycan array binding signal (z-score) [17]: -0.144 | glycan array binding signal (z-score) [18]: -0.137 | glycan array binding signal (z-score) [19]: -0.077 | glycan array binding signal (z-score) [20]: -0.14 | glycan array binding signal (z-score) (Neu5Ac(a2-6)Gal): -0.138 | glycan array binding signal (z-score) [21]: -0.144 | glycan array binding signal (z-score) (Neu5Ac(a2-6)Gal(b1-4)Glc): -0.13 | glycan array binding signal (z-score) [22]: -0.136 | glycan array binding signal (z-score) [23]: -0.131 | glycan array binding signal (z-score) [24]: -0.138 | glycan array binding signal (z-score) [25]: -0.142 | glycan array binding signal (z-score) [26]: -0.145 | glycan array binding signal (z-score) [27]: -0.142
